{
  "source": "the BET-seq Pho4 binding data (Le et al. 2018)",
  "note": "The list shows a part of the results. These are noisy estimates, calculated here from bound and input reads.",
  "data": [
    {"molecular_target": "T1, Pho4 (S. cerevisiae) (UniProt P07270)", "T1 sequence": "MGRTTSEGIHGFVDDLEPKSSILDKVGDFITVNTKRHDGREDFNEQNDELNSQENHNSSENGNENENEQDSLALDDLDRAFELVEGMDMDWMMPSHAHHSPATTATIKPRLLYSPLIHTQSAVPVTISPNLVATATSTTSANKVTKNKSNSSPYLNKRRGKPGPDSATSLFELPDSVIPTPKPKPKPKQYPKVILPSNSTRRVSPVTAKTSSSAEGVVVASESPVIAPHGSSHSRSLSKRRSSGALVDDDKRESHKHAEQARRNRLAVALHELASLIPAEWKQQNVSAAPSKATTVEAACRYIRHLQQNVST", "assay": "relative binding free energy (BET-seq); higher = weaker binding", "settings": "reference: library average", "units": {"relative binding free energy": "kJ/mol"}, "values": [
      {"sequence": "GTATGCACGTGTGATC", "relative binding free energy": 1.26},
      {"sequence": "TTGATCACGTGGCAGT", "relative binding free energy": -0.0837},
      {"sequence": "GTATACACGTGTTTAA", "relative binding free energy": 0.209},
      {"sequence": "CGGGACACGTGCGGGA", "relative binding free energy": -0.335},
      {"sequence": "TTTGGCACGTGCTAGG", "relative binding free energy": -0.795},
      {"sequence": "TATGACACGTGTCGGT", "relative binding free energy": -0.879},
      {"sequence": "TGGATCACGTGGTCTG", "relative binding free energy": 0.377},
      {"sequence": "GGTGGCACGTGGGATC", "relative binding free energy": -0.293},
      {"sequence": "ATTTCCACGTGGTATT", "relative binding free energy": 0},
      {"sequence": "GAGGTCACGTGAAGGG", "relative binding free energy": 1.55},
      {"sequence": "TTGTTCACGTGATTCA", "relative binding free energy": 1.46},
      {"sequence": "AATGTCACGTGTACTG", "relative binding free energy": 0.0418},
      {"sequence": "CAATGCACGTGAGGGG", "relative binding free energy": 0.837},
      {"sequence": "GGTAGCACGTGATCTG", "relative binding free energy": 0.335},
      {"sequence": "TTGTTCACGTGGACTT", "relative binding free energy": 1.26},
      {"sequence": "TTTGACACGTGGAGCG", "relative binding free energy": 0.126},
      {"sequence": "GCTTGCACGTGTGGGA", "relative binding free energy": 0.0837},
      {"sequence": "ATCATCACGTGTGTGG", "relative binding free energy": 0.167},
      {"sequence": "GGAAACACGTGTTAGG", "relative binding free energy": -0.293},
      {"sequence": "TTTATCACGTGTTTGT", "relative binding free energy": 0.92},
      {"sequence": "TTTTTCACGTGATAAA", "relative binding free energy": 1.42},
      {"sequence": "GTAAGCACGTGTGCAG", "relative binding free energy": 0.251},
      {"sequence": "TGCGGCACGTGGGACT", "relative binding free energy": -0.879},
      {"sequence": "GCAGTCACGTGGTCGT", "relative binding free energy": 0.669},
      {"sequence": "TTCGGCACGTGTAATT", "relative binding free energy": 0.837},
      {"sequence": "GGAGGCACGTGGCTAG", "relative binding free energy": -0.209},
      {"sequence": "TAATTCACGTGTAATT", "relative binding free energy": 1.13},
      {"sequence": "TTTAGCACGTGAGTGC", "relative binding free energy": 0.502},
      {"sequence": "TCAGGCACGTGGCGCG", "relative binding free energy": -0.628},
      {"sequence": "CGGAACACGTGAGTGT", "relative binding free energy": 1},
      {"sequence": "TGTGGCACGTGTGAGG", "relative binding free energy": -0.0418},
      {"sequence": "CGTGGCACGTGAGTAG", "relative binding free energy": 0.0837},
      {"sequence": "GAATTCACGTGTATGC", "relative binding free energy": 1.55},
      {"sequence": "GATAGCACGTGGCGTG", "relative binding free energy": -0.795},
      {"sequence": "AGTAACACGTGGGATT", "relative binding free energy": -0.251},
      {"sequence": "TCTGTCACGTGTATAG", "relative binding free energy": 0.377},
      {"sequence": "GTTCGCACGTGCGTTT", "relative binding free energy": 0},
      {"sequence": "TAATGCACGTGTTAGC", "relative binding free energy": -0.209},
      {"sequence": "TGTGGCACGTGTAAAC", "relative binding free energy": 0.293},
      {"sequence": "GGTATCACGTGGGCAG", "relative binding free energy": 0.293},
      {"sequence": "GTGCTCACGTGTCGGA", "relative binding free energy": 1.72},
      {"sequence": "CATCTCACGTGGGGGT", "relative binding free energy": 0.251},
      {"sequence": "TCTGGCACGTGTAGGG", "relative binding free energy": -0.0837},
      {"sequence": "TGTGACACGTGTTAGT", "relative binding free energy": -0.335},
      {"sequence": "TTATACACGTGAGTTG", "relative binding free energy": 0.209},
      {"sequence": "TGATGCACGTGCATGG", "relative binding free energy": 0.0418},
      {"sequence": "CATGTCACGTGGTGCG", "relative binding free energy": 0.46},
      {"sequence": "TCATTCACGTGTGTGC", "relative binding free energy": 1.34},
      {"sequence": "TATCTCACGTGGGGCT", "relative binding free energy": 0.46},
      {"sequence": "TTATGCACGTGAAATG", "relative binding free energy": 0.669},
      {"sequence": "GGGGCCACGTGCTGGG", "relative binding free energy": -0.377},
      {"sequence": "TAGTCCACGTGGATGG", "relative binding free energy": 0},
      {"sequence": "GGTGGCACGTGGGGCT", "relative binding free energy": -0.502},
      {"sequence": "GTGTTCACGTGAAGGG", "relative binding free energy": 1.8},
      {"sequence": "TTGGGCACGTGGTCCG", "relative binding free energy": -0.962},
      {"sequence": "TAGGACACGTGTTTGA", "relative binding free energy": -0.0418},
      {"sequence": "TTTCTCACGTGTTCTT", "relative binding free energy": 1.55},
      {"sequence": "GCCGGCACGTGGGTGT", "relative binding free energy": -1.26},
      {"sequence": "AGGGTCACGTGTTGTC", "relative binding free energy": 0.502},
      {"sequence": "TTTTTCACGTGATGCG", "relative binding free energy": 1.17},
      {"sequence": "AAGGGCACGTGGGGTC", "relative binding free energy": -1.13},
      {"sequence": "TTTGGCACGTGCATGA", "relative binding free energy": -1.42},
      {"sequence": "GTTAACACGTGTGATG", "relative binding free energy": 0.0837},
      {"sequence": "TTAGGCACGTGTTGAG", "relative binding free energy": -0.377},
      {"sequence": "TATGTCACGTGCGAGG", "relative binding free energy": -0.0837},
      {"sequence": "AGGGTCACGTGTGGAC", "relative binding free energy": 0.837},
      {"sequence": "TGTGTCACGTGGCTTC", "relative binding free energy": 0.293},
      {"sequence": "TTCTTCACGTGATGGT", "relative binding free energy": 1.3},
      {"sequence": "GATGTCACGTGGCGTA", "relative binding free energy": 0.251},
      {"sequence": "ATCTTCACGTGTGGTA", "relative binding free energy": 1.26},
      {"sequence": "GGACGCACGTGAGAGG", "relative binding free energy": 0.377},
      {"sequence": "GTTGGCACGTGACGGG", "relative binding free energy": 0.209},
      {"sequence": "TAGTGCACGTGTTTCG", "relative binding free energy": -0.209},
      {"sequence": "TTAAACACGTGAGTTG", "relative binding free energy": 1.21},
      {"sequence": "TTGGCCACGTGGTGTT", "relative binding free energy": -0.418},
      {"sequence": "TAGGTCACGTGGGCCT", "relative binding free energy": 0.0418},
      {"sequence": "ATGGCCACGTGCGTTG", "relative binding free energy": -0.335},
      {"sequence": "GTAAGCACGTGCTGGT", "relative binding free energy": -0.46},
      {"sequence": "GATTACACGTGAGGTT", "relative binding free energy": 1.51},
      {"sequence": "GTTCGCACGTGGGTCA", "relative binding free energy": -0.711},
      {"sequence": "TGATGCACGTGTGCTG", "relative binding free energy": 0.46},
      {"sequence": "TGAATCACGTGTGGTG", "relative binding free energy": 0.711},
      {"sequence": "GTAAACACGTGGTGGA", "relative binding free energy": 0.335},
      {"sequence": "AGTTTCACGTGATCGT", "relative binding free energy": 1.21},
      {"sequence": "GCGATCACGTGTGGAT", "relative binding free energy": 1.05},
      {"sequence": "GATGGCACGTGAGATG", "relative binding free energy": 1.34},
      {"sequence": "TTTATCACGTGTAGCA", "relative binding free energy": 0.711},
      {"sequence": "TAACTCACGTGTATTT", "relative binding free energy": 1.21},
      {"sequence": "CATGTCACGTGAGGGT", "relative binding free energy": 0.92},
      {"sequence": "TGACGCACGTGAATGT", "relative binding free energy": 1.17},
      {"sequence": "AGGCGCACGTGTGTGA", "relative binding free energy": 0.0418},
      {"sequence": "ATAGCCACGTGGCGGG", "relative binding free energy": -0.92},
      {"sequence": "TGGGACACGTGATAGT", "relative binding free energy": 0},
      {"sequence": "TGTCTCACGTGCTGGT", "relative binding free energy": 0.46},
      {"sequence": "AGGGGCACGTGCAATG", "relative binding free energy": -0.837},
      {"sequence": "GTGATCACGTGTTGAG", "relative binding free energy": 0.0837},
      {"sequence": "TTTGACACGTGTATTA", "relative binding free energy": 0.293},
      {"sequence": "TTAGACACGTGGGGGT", "relative binding free energy": -0.711},
      {"sequence": "ACGATCACGTGTGTGG", "relative binding free energy": 0.837},
      {"sequence": "GTAGACACGTGCAGGT", "relative binding free energy": -0.126},
      {"sequence": "GGAATCACGTGTGTCG", "relative binding free energy": 0.753},
      {"sequence": "TGCTACACGTGTTTTT", "relative binding free energy": 1.05},
      {"sequence": "ATAGACACGTGGGGGT", "relative binding free energy": -0.209},
      {"sequence": "TGCTTCACGTGGTGCT", "relative binding free energy": 1.3},
      {"sequence": "TATGTCACGTGATAAT", "relative binding free energy": 0.753},
      {"sequence": "GGGCTCACGTGTGGGT", "relative binding free energy": 1.09},
      {"sequence": "AATTGCACGTGTGGGT", "relative binding free energy": 0.418},
      {"sequence": "TGACGCACGTGTGGCT", "relative binding free energy": -0.167},
      {"sequence": "TTAGTCACGTGAAGAG", "relative binding free energy": 1.46},
      {"sequence": "TTGAGCACGTGTTTGA", "relative binding free energy": -0.209},
      {"sequence": "GCGGTCACGTGAATTG", "relative binding free energy": 1.51},
      {"sequence": "AGAGGCACGTGACAGG", "relative binding free energy": -0.377},
      {"sequence": "TTGTTCACGTGTGGCA", "relative binding free energy": 1.42},
      {"sequence": "TGGTGCACGTGGGTGC", "relative binding free energy": -0.586},
      {"sequence": "GATTTCACGTGAGGAT", "relative binding free energy": 2.13}
    ]}
  ]
}
